# Some of the results follow.
# Experiments:
# Test in all cases: glycan array binding signal (z-score within array); higher = stronger binding
# Details in all cases: glycan notation: IUPAC condensed, linker removed
# [1] = target: Neu5Ac(a2-3)Gal(b1-4)GlcNAc(b1-2)[Neu5Ac(a2-3)Gal(b1-4)GlcNAc(b1-4)]Man(a1-3)[GlcNAc(b1-4)][Neu5Ac(a2-3)Gal(b1-4)GlcNAc(b1-4)Man(a1-6)]Man(b1-4)GlcNAc(b1-4)GlcNAc
# Outline: (§1)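 The binding signal is a Z-score computed within each array. Data were drawn from 3228 arrays in the Consortium for Functional Glycomics database, restricted to those with a known protein sequence. Scores were averaged over arrays of the same protein sequence at different concentrations or buffers, and over linkers, and negative values can be taken as non-binding.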
# [2] = target: Neu5Ac(a2-3)Gal(b1-4)GlcNAc(b1-2)[Neu5Ac(a2-3)Gal(b1-4)GlcNAc(b1-6)]Man(a1-6)[Neu5Ac(a2-3)Gal(b1-4)GlcNAc(b1-2)Man(a1-3)]Man(b1-4)GlcNAc(b1-4)GlcNAc
# Outline: as §1
# [3] = target: Neu5Ac(a2-3)Gal(b1-4)GlcNAc(b1-2)[Neu5Ac(a2-3)Gal(b1-4)GlcNAc(b1-6)]Man(a1-6)[Neu5Ac(a2-3)Gal(b1-4)GlcNAc(b1-2)Man(a1-3)][GlcNAc(b1-4)]Man(b1-4)GlcNAc(b1-4)GlcNAc
# Outline: as §1
# [4] = target: Neu5Ac(a2-3)Gal(b1-4)GlcNAc(b1-3)Gal
# Outline: as §1
# [5] = target: Neu5Ac(a2-3)Gal(b1-4)GlcNAc(b1-3)Gal(b1-3)GlcNAc
# Outline: as §1
# [6] = target: Neu5Ac(a2-3)Gal(b1-4)GlcNAc(b1-3)Gal(b1-4)GlcNAc
# Outline: as §1
# [7] = target: Neu5Ac(a2-3)Gal(b1-4)GlcNAc(b1-3)Gal(b1-4)GlcNAc(b1-2)Man(a1-3)[Neu5Ac(a2-3)Gal(b1-4)GlcNAc(b1-3)Gal(b1-4)GlcNAc(b1-2)Man(a1-6)]Man(b1-4)GlcNAc(b1-4)GlcNAc
# Outline: as §1
# [8] = target: Neu5Ac(a2-3)Gal(b1-4)GlcNAc(b1-3)Gal(b1-4)GlcNAc(b1-3)Gal(b1-4)GlcNAc
# Outline: as §1
# [9] = target: Neu5Ac(a2-3)Gal(b1-4)GlcNAc(b1-3)Gal(b1-4)GlcNAc(b1-3)Gal(b1-4)GlcNAc(b1-2)Man(a1-3)[Neu5Ac(a2-3)Gal(b1-4)GlcNAc(b1-3)Gal(b1-4)GlcNAc(b1-3)Gal(b1-4)GlcNAc(b1-2)Man(a1-6)]GalNAc
# Outline: as §1
# [10] = target: Neu5Ac(a2-3)Gal(b1-4)GlcNAc(b1-3)Gal(b1-4)GlcNAc(b1-3)GalNAc
# Outline: as §1
# [11] = target: Neu5Ac(a2-3)Gal(b1-4)GlcNAc(b1-3)Gal(b1-4)GlcNAc(b1-3)[Neu5Ac(a2-3)Gal(b1-4)GlcNAc(b1-3)Gal(b1-4)GlcNAc(b1-6)]GalNAc
# Outline: as §1
# [12] = target: Neu5Ac(a2-3)Gal(b1-4)GlcNAc(b1-3)Gal(b1-4)GlcNAc(b1-6)[Gal(b1-3)]GalNAc
# Outline: as §1
# [13] = target: Neu5Ac(a2-3)Gal(b1-4)GlcNAc(b1-3)Gal(b1-4)[Fuc(a1-3)]GlcNAc
# Outline: as §1
# [14] = target: Neu5Ac(a2-3)Gal(b1-4)GlcNAc(b1-3)GalNAc
# Outline: as §1
# [15] = target: Neu5Ac(a2-3)Gal(b1-4)GlcNAc(b1-3)[Neu5Ac(a2-3)Gal(b1-4)GlcNAc(b1-6)]GalNAc
# Outline: as §1
# [16] = target: Neu5Ac(a2-3)Gal(b1-4)GlcNAc(b1-6)GalNAc
# Outline: as §1
# [17] = target: Neu5Ac(a2-3)Gal(b1-4)GlcNAc(b1-6)[Gal(b1-3)]GalNAc
# Outline: as §1
# [18] = target: Neu5Ac(a2-3)Gal(b1-4)GlcNAc(b1-6)[Neu5Ac(a2-3)Gal(b1-3)]GalNAc
# Outline: as §1
# [19] = target: Neu5Ac(a2-3)Gal(b1-4)GlcNAc6S
# Outline: as §1
# [20] = target: Neu5Ac(a2-3)Gal(b1-4)[Fuc(a1-3)]GlcNAc
# Outline: as §1
# [21] = target: Neu5Ac(a2-3)Gal(b1-4)[Fuc(a1-3)]GlcNAc(b1-2)Man
# Outline: as §1
# [22] = target: Neu5Ac(a2-3)Gal(b1-4)[Fuc(a1-3)]GlcNAc(b1-3)Gal
# Outline: as §1
# [23] = target: Neu5Ac(a2-3)Gal(b1-4)[Fuc(a1-3)]GlcNAc(b1-3)Gal(b1-4)GlcNAc
# Outline: as §1
# [24] = target: Neu5Ac(a2-3)Gal(b1-4)[Fuc(a1-3)]GlcNAc(b1-3)Gal(b1-4)[Fuc(a1-3)]GlcNAc(b1-3)Gal(b1-4)[Fuc(a1-3)]GlcNAc
# Outline: as §1
# [25] = target: Neu5Ac(a2-3)Gal(b1-4)[Fuc(a1-3)]GlcNAc(b1-3)GalNAc
# Outline: as §1
# [26] = target: Neu5Ac(a2-3)Gal(b1-4)[Fuc(a1-3)]GlcNAc(b1-6)[Gal(b1-3)]GalNAc
# Outline: as §1
# [27] = target: Neu5Ac(a2-3)Gal(b1-4)[Fuc(a1-3)]GlcNAc(b1-6)[Neu5Ac(a2-3)Gal(b1-3)]GalNAc
# Outline: as §1
# [28] = target: Neu5Ac(a2-3)Gal(b1-4)[Fuc(a1-3)]GlcNAc6S
# Outline: as §1
# [29] = target: Neu5Ac(a2-3)Gal6S(b1-4)GlcNAc
# Outline: as §1
# [30] = target: Neu5Ac(a2-3)Gal6S(b1-4)[Fuc(a1-3)]GlcNAc
# Outline: as §1
# Neu5Ac(a2-3)GalNAc = target: Neu5Ac(a2-3)GalNAc
# Outline: as §1
# [31] = target: Neu5Ac(a2-3)GalNAc(b1-4)GlcNAc
# Outline: as §1
# [32] = target: Neu5Ac(a2-3)[GalNAc(b1-4)]Gal(b1-4)Glc
# Outline: as §1
# [33] = target: Neu5Ac(a2-3)[GalNAc(b1-4)]Gal(b1-4)GlcNAc
# Outline: as §1
# [34] = target: Neu5Ac(a2-3)[GalNAc(b1-4)]Gal(b1-4)GlcNAc(b1-3)GalNAc
# Outline: as §1
# [35] = target: Neu5Ac(a2-3)[Neu5Ac(a2-6)]GalNAc
# Outline: as §1
# Neu5Ac(a2-6)Gal = target: Neu5Ac(a2-6)Gal
# Outline: as §1
# [36] = target: Neu5Ac(a2-6)Gal(b1-3)GlcNAc(b1-3)[Gal(b1-4)GlcNAc(b1-6)]Gal(b1-4)Glc
# Outline: as §1
# Neu5Ac(a2-6)Gal(b1-4)Glc = target: Neu5Ac(a2-6)Gal(b1-4)Glc
# Outline: as §1
# [37] = target: Neu5Ac(a2-6)Gal(b1-4)GlcNAc
# Outline: as §1
# [38] = target: Neu5Ac(a2-6)Gal(b1-4)GlcNAc(b1-2)Man
# Outline: as §1
# [39] = target: Neu5Ac(a2-6)Gal(b1-4)GlcNAc(b1-2)Man(a1-3)Man(b1-4)GlcNAc(b1-4)GlcNAc
# Outline: as §1
# [40] = target: Neu5Ac(a2-6)Gal(b1-4)GlcNAc(b1-2)Man(a1-3)[Gal(b1-4)GlcNAc(b1-2)Man(a1-6)]Man(b1-4)GlcNAc(b1-4)GlcNAc
# Outline: as §1
# [41] = target: Neu5Ac(a2-6)Gal(b1-4)GlcNAc(b1-2)Man(a1-3)[GlcNAc(b1-2)Man(a1-6)]Man(b1-4)GlcNAc(b1-4)GlcNAc
# Outline: as §1
# [42] = target: Neu5Ac(a2-6)Gal(b1-4)GlcNAc(b1-2)Man(a1-3)[GlcNAc(b1-4)][Neu5Ac(a2-6)Gal(b1-4)GlcNAc(b1-2)Man(a1-6)]Man(b1-4)GlcNAc(b1-4)GlcNAc
# Outline: as §1
binder,measurement,setting,value
"FliC (Pseudomonas aeruginosa), P72151 (protein) MALTVNTNIASLNTQRNLNASSNDLNTSLQRLTTGYRINSAKDDAAGLQISNRLSNQISGLNVATRNANDGISLAQTAEGALQQSTNILQRIRDLALQSANGSNSDADRAALQKEVAAQQAELTRISDTTTFGGRKLLDGSFGTTSFQVGSNAYETIDISLQNASASAIGSYQVGSNGAGTVASVAGTATASGIASGTVNLVGGGQVKNIAIAAGDSAKAIAEKMDGAIPNLSARARTVFTADVSGVTGGSLNFDVTVGSNTVSLAGVTSTQDLADQLNSNSSKLGITASINDKGVLTITSATGENVKFGAQTGTATAGQVAVKVQGSDGKFEAAAKNVVAAGTAATTTIVTGYVQLNSPTAYSVSGTGTQASQVFGNASAAQKSSVASVDISTADGAQNAIAVVDNALAAIDAQRADLGAVQNRFKNTIDNLTNISENATNARSRIKDTDFAAETAALSKNQVLQQAGTAILAQANQLPQAVLSLLR",glycan array binding signal (z-score),[1],0.831
same,glycan array binding signal (z-score),[2],-0.196
same,glycan array binding signal (z-score),[3],-0.193
same,glycan array binding signal (z-score),[4],-0.191
same,glycan array binding signal (z-score),[5],-0.185
same,glycan array binding signal (z-score),[6],-0.134
same,glycan array binding signal (z-score),[7],-0.073
same,glycan array binding signal (z-score),[8],0.251
same,glycan array binding signal (z-score),[9],0.039
same,glycan array binding signal (z-score),[10],-0.217
same,glycan array binding signal (z-score),[11],-0.117
same,glycan array binding signal (z-score),[12],-0.104
same,glycan array binding signal (z-score),[13],-0.109
same,glycan array binding signal (z-score),[14],-0.213
same,glycan array binding signal (z-score),[15],-0.171
same,glycan array binding signal (z-score),[16],-0.163
same,glycan array binding signal (z-score),[17],-0.17
same,glycan array binding signal (z-score),[18],0.476
same,glycan array binding signal (z-score),[19],-0.132
same,glycan array binding signal (z-score),[20],0.173
same,glycan array binding signal (z-score),[21],-0.25
same,glycan array binding signal (z-score),[22],0.271
same,glycan array binding signal (z-score),[23],-0.166
same,glycan array binding signal (z-score),[24],3.22
same,glycan array binding signal (z-score),[25],-0.081
same,glycan array binding signal (z-score),[26],-0.124
same,glycan array binding signal (z-score),[27],-0.095
same,glycan array binding signal (z-score),[28],-0.203
same,glycan array binding signal (z-score),[29],-0.218
same,glycan array binding signal (z-score),[30],-0.129
same,glycan array binding signal (z-score),Neu5Ac(a2-3)GalNAc,-0.254
same,glycan array binding signal (z-score),[31],-0.187
same,glycan array binding signal (z-score),[32],-0.175
same,glycan array binding signal (z-score),[33],-0.214
same,glycan array binding signal (z-score),[34],-0.182
same,glycan array binding signal (z-score),[35],-0.036
same,glycan array binding signal (z-score),Neu5Ac(a2-6)Gal,-0.149
same,glycan array binding signal (z-score),[36],-0.18
same,glycan array binding signal (z-score),Neu5Ac(a2-6)Gal(b1-4)Glc,-0.195
same,glycan array binding signal (z-score),[37],-0.162
same,glycan array binding signal (z-score),[38],-0.267
same,glycan array binding signal (z-score),[39],-0.121
same,glycan array binding signal (z-score),[40],-0.173
same,glycan array binding signal (z-score),[41],-0.066
same,glycan array binding signal (z-score),[42],-0.149
